This continues a long series; more values of the same kind are listed elsewhere.
Tests used:
TSPO [1] = target: T1, TSPO (Rattus norvegicus, UniProt P16257); assay: Ex vivo biodistribution of [^11C]CB184 in control and HSE rats; settings: approximately 75 min after injection
T1 construct: from tissue; host or cells: Brain regions and peripheral organs of male Wistar rats, measured in vivo by PET and ex vivo by gamma counting
Protocol: PET scans were performed using a microPET Focus 220 camera (Siemens Medical Solutions Inc., Malvern, PA) on either day 6 or day 7 after inoculation with HSV-1 [18], depending on the severity of clinical symptoms. The rats were anaesthetized with 5 % isoflurane mixed with medical air at a flow rate of […]. After induction, anaesthesia was maintained with 1.5 – 2 % of isoflurane. The anaesthetized rats were positioned in the camera in a supine position with the head in the field of view. The PET tracer [^11C]CB184 was manually injected via the penile vein, and at the same time a dynamic 60-min scan was started. […] For 30 min the animals were kept under anaesthesia on the operation table after injection of the PET tracer into the penile vein, and were then placed in the scanner for a 30-min dynamic scan. A transmission scan was obtained in all rats using a ^57Co point source for attenuation and scatter correction. In the pretreated group, 5 mg/kg unlabelled PK11195 (Sigma-Aldrich, St. Louis, MO) in dimethyl sulphoxide (DMSO) at a concentration of 10 mg/ml was administered via a tail vein 5 min before injection of the PET tracer.
The brain and peripheral organs were excised and dissected, and blood was centrifuged to collect a plasma sample. Tissues were weighed and radioactivity was measured in a gamma counter (LKB Wallac, Turku, Finland). Tracer uptake in each region was corrected for the injected tracer dose and body weight and expressed as standardized uptake value (SUV), which was defined as: radioactivity (MBq/cm^3)/[injected dose (MBq)/body weight (g)].

TSPO [2] = target: T1, TSPO; assay: PET imaging, VOI-based SUV analysis in control and HSE rats; assay type: in vivo; settings: PET 50 – 60 min after injection
Protocol: PET scans were performed using a microPET Focus 220 camera (Siemens Medical Solutions Inc., Malvern, PA) on either day 6 or day 7 after inoculation with HSV-1 [18], depending on the severity of clinical symptoms. The rats were anaesthetized with 5 % isoflurane mixed with medical air at a flow rate of […]. After induction, anaesthesia was maintained with 1.5 – 2 % of isoflurane. The anaesthetized rats were positioned in the camera in a supine position with the head in the field of view. The PET tracer [^11C]CB184 was manually injected via the penile vein, and at the same time a dynamic 60-min scan was started. […] Therefore, it was decided to scan the remaining animals with a 30-min scan. For 30 min the animals were kept under anaesthesia on the operation table after injection of the PET tracer into the penile vein, and were then placed in the scanner for a 30-min dynamic scan. A transmission scan was obtained in all rats using a ^57Co point source for attenuation and scatter correction. In the pretreated group, 5 mg/kg unlabelled PK11195 (Sigma-Aldrich, St. Louis, MO) in dimethyl sulphoxide (DMSO) at a concentration of 10 mg/ml was administered via a tail vein 5 min before injection of the PET tracer.
The list-mode data from the emission scan were reconstructed into three frames of 10 min for the dynamic 30-min scans, and into 21 frames (6 × 10 s, 4 × 30 s, 2 × 60 s, 1 × 120 s, 1 × 180 s, 4 × 300 s, and 3 × 600 s) for the 60-min dynamic scans. Emission sinograms were iteratively reconstructed (OSEM 2D, four iterations, and 16 subsets) after being normalized and corrected for attenuation and decay of radioactivity. PET images were analysed using VINCI 4.22 software (Max Planck Institute for Neurological Research, Cologne, Germany). […] Volumes of interest (VOI) for the different brain regions were defined by addition of previously constructed regions. Brain radioactivity concentrations were calculated from these regions of interest to generate time–activity curves (TACs). The TACs were corrected for injected dose and animal body weight, and expressed as SUV. Based on visual analysis of the TACs, it was decided to use the last 10-min frame of the scans obtained without arterial blood sampling for further SUV analysis of differences between groups, because at this point tracer uptake reached a plateau (see Fig. 2). No significant differences were observed between the 30-min and the 60-min scans, and their data were combined.

[3] = HSE rats pretreated with 5 mg/kg PK11195
[4] = control (PBS) rats pretreated with 5 mg/kg PK11195

CCCN(CCC)C(=O)Cc1c(-c2ccc(O[11CH3])cc2)nc2c(Cl)cc(Cl)cn12 [[^11C]CB184]
SUV ex vivo, Amygdala/piriform cortex (TSPO [1]; [3]): 0.08 ± 0.06 SUV
SUV ex vivo, Cerebellum (TSPO [1]; [3]): 0.11 ± 0.06 SUV
SUV ex vivo, Cingulate/frontopolar cortex (TSPO [1]; [3]): 0.10 ± 0.05 SUV
SUV ex vivo, Entorhinal cortex (TSPO [1]; [3]): 0.10 ± 0.05 SUV
SUV ex vivo, Frontal cortex (TSPO [1]; [3]): 0.08 ± 0.05 SUV
SUV ex vivo, Olfactory bulb (TSPO [1]; [3]): 0.17 ± 0.11 SUV
SUV ex vivo, Trachea (TSPO [1]; [3]): 1.02 ± 0.70 SUV
SUV ex vivo, Cerebellum (TSPO [1]; HSE rats): 0.84 ± 0.41 SUV
SUV ex vivo, Cingulate/frontopolar cortex (TSPO [1]; HSE rats): 0.46 ± 0.21 SUV
SUV ex vivo, Entorhinal cortex (TSPO [1]; HSE rats): 0.57 ± 0.39 SUV
SUV ex vivo, Frontal cortex (TSPO [1]; HSE rats): 0.39 ± 0.09 SUV
SUV ex vivo, Trachea (TSPO [1]; HSE rats): 6.38 ± 3.30 SUV
SUV ex vivo, Amygdala/piriform cortex (TSPO [1]; [4]): 0.10 ± 0.05 SUV
SUV ex vivo, Cerebellum (TSPO [1]; [4]): 0.13 ± 0.08 SUV
SUV ex vivo, Cingulate/frontopolar cortex (TSPO [1]; [4]): 0.24 ± 0.17 SUV
SUV ex vivo, Entorhinal cortex (TSPO [1]; [4]): 0.09 ± 0.07 SUV
SUV ex vivo, Frontal cortex (TSPO [1]; [4]): 0.10 ± 0.07 SUV
SUV ex vivo, Olfactory bulb (TSPO [1]; [4]): 0.20 ± 0.08 SUV
SUV ex vivo, Trachea (TSPO [1]; [4]): 0.81 ± 0.35 SUV
SUV ex vivo, Amygdala/piriform cortex (TSPO [1]; control rats): 0.30 ± 0.08 SUV
SUV ex vivo, Cerebellum (TSPO [1]; control rats): 0.52 ± 0.06 SUV
SUV ex vivo, Cingulate/frontopolar cortex (TSPO [1]; control rats): 0.36 ± 0.13 SUV
SUV ex vivo, Entorhinal cortex (TSPO [1]; control rats): 0.36 ± 0.13 SUV
SUV ex vivo, Frontal cortex (TSPO [1]; control rats): 0.44 ± 0.44 SUV
SUV ex vivo, Olfactory bulb (TSPO [1]; control rats): 1.06 ± 0.15 SUV
SUV ex vivo, Trachea (TSPO [1]; control rats): 5.56 ± 1.50 SUV
SUV PET, Amygdala (TSPO [2]; [3]): 0.16 ± 0.05 SUV
SUV PET, Cerebellum (TSPO [2]; [3]): 0.14 ± 0.03 SUV
SUV PET, Frontal cortex (TSPO [2]; [3]): 0.18 ± 0.03 SUV
SUV PET, Hippocampus (TSPO [2]; [3]): 0.12 ± 0.03 SUV
SUV PET, Hypothalamus (TSPO [2]; [3]): 0.18 ± 0.05 SUV
SUV PET, Medulla (TSPO [2]; [3]): 0.19 ± 0.06 SUV
SUV PET, Midbrain (TSPO [2]; [3]): 0.13 ± 0.03 SUV
SUV PET, Olfactory bulb (TSPO [2]; [3]): 0.26 ± 0.03 SUV
SUV PET, Pons (TSPO [2]; [3]): 0.19 ± 0.05 SUV
SUV PET, Remaining cortices (TSPO [2]; [3]): 0.15 ± 0.02 SUV
SUV PET, Septum (TSPO [2]; [3]): 0.12 ± 0.03 SUV
SUV PET, Striatum (TSPO [2]; [3]): 0.17 ± 0.05 SUV
SUV PET, Thalamus (TSPO [2]; [3]): 0.11 ± 0.03 SUV
SUV PET, Whole brain (TSPO [2]; [3]): 0.15 ± 0.02 SUV
SUV PET, Amygdala (TSPO [2]; HSE rats): 0.49 ± 0.14 SUV
SUV PET, Cerebellum (TSPO [2]; HSE rats): 0.62 ± 0.17 SUV
SUV PET, Frontal cortex (TSPO [2]; HSE rats): 0.42 ± 0.13 SUV
SUV PET, Hippocampus (TSPO [2]; HSE rats): 0.40 ± 0.11 SUV
SUV PET, Hypothalamus (TSPO [2]; HSE rats): 0.56 ± 0.10 SUV
SUV PET, Medulla (TSPO [2]; HSE rats): 0.86 ± 0.27 SUV
SUV PET, Midbrain (TSPO [2]; HSE rats): 0.42 ± 0.12 SUV
SUV PET, Olfactory bulb (TSPO [2]; HSE rats): 0.96 ± 0.18 SUV
SUV PET, Pons (TSPO [2]; HSE rats): 0.73 ± 0.17 SUV
SUV PET, Remaining cortices (TSPO [2]; HSE rats): 0.45 ± 0.06 SUV
SUV PET, Septum (TSPO [2]; HSE rats): 0.40 ± 0.16 SUV
SUV PET, Striatum (TSPO [2]; HSE rats): 0.38 ± 0.06 SUV
SUV PET, Thalamus (TSPO [2]; HSE rats): 0.33 ± 0.07 SUV
SUV PET, Whole brain (TSPO [2]; HSE rats): 0.52 ± 0.08 SUV
SUV PET, Amygdala (TSPO [2]; [4]): 0.16 ± 0.02 SUV
SUV PET, Cerebellum (TSPO [2]; [4]): 0.14 ± 0.02 SUV
SUV PET, Frontal cortex (TSPO [2]; [4]): 0.14 ± 0.02 SUV
SUV PET, Hippocampus (TSPO [2]; [4]): 0.13 ± 0.03 SUV
SUV PET, Hypothalamus (TSPO [2]; [4]): 0.16 ± 0.03 SUV
SUV PET, Medulla (TSPO [2]; [4]): 0.19 ± 0.04 SUV
SUV PET, Midbrain (TSPO [2]; [4]): 0.11 ± 0.02 SUV
SUV PET, Olfactory bulb (TSPO [2]; [4]): 0.21 ± 0.03 SUV
SUV PET, Pons (TSPO [2]; [4]): 0.18 ± 0.03 SUV
SUV PET, Remaining cortices (TSPO [2]; [4]): 0.14 ± 0.01 SUV
SUV PET, Septum (TSPO [2]; [4]): 0.10 ± 0.01 SUV
SUV PET, Striatum (TSPO [2]; [4]): 0.11 ± 0.03 SUV
SUV PET, Thalamus (TSPO [2]; [4]): 0.12 ± 0.02 SUV
SUV PET, Whole brain (TSPO [2]; [4]): 0.14 ± 0.01 SUV
SUV PET, Amygdala (TSPO [2]; control rats): 0.43 ± 0.11 SUV
SUV PET, Cerebellum (TSPO [2]; control rats): 0.48 ± 0.08 SUV
SUV PET, Frontal cortex (TSPO [2]; control rats): 0.44 ± 0.12 SUV
SUV PET, Hippocampus (TSPO [2]; control rats): 0.31 ± 0.09 SUV
SUV PET, Hypothalamus (TSPO [2]; control rats): 0.47 ± 0.15 SUV
SUV PET, Medulla (TSPO [2]; control rats): 0.47 ± 0.08 SUV
SUV PET, Midbrain (TSPO [2]; control rats): 0.33 ± 0.09 SUV
SUV PET, Olfactory bulb (TSPO [2]; control rats): 0.84 ± 0.13 SUV
SUV PET, Pons (TSPO [2]; control rats): 0.44 ± 0.11 SUV
SUV PET, Remaining cortices (TSPO [2]; control rats): 0.40 ± 0.07 SUV
SUV PET, Septum (TSPO [2]; control rats): 0.29 ± 0.12 SUV
SUV PET, Striatum (TSPO [2]; control rats): 0.29 ± 0.09 SUV
SUV PET, Thalamus (TSPO [2]; control rats): 0.26 ± 0.07 SUV
SUV PET, Whole brain (TSPO [2]; control rats): 0.41 ± 0.08 SUV

Source: publication PMC4424274, “Evaluation of [^11C]CB184 for imaging and quantification of TSPO overexpression in a rat model of herpes encephalitis” (European Journal of Nuclear Medicine and Molecular Imaging, 2015)
